Reference: the supplement of paper PMC3334620
The full ranking holds about 33,000 sequences; the median of “E-score (-0.5 to 0.5)” is about -0.01, and the highest 2% start at about 0.26. The list shows a part of the results.

Target: Ste12 (UniProt P13574)
Test: PBM E-score (8-mer binding enrichment) (E-score (-0.5 to 0.5)); higher = stronger / more preferred TF binding; most listed sequences are background and not binding sites
Settings: protein concentration: 200 nM; construct: GST-DNA-binding domain
How it was run: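 PURExpress in vitro transcription/translation supplied GST-tagged yeast transcription factors, either full-length or DNA-binding domain. Applied at about 100-200 nM to universal all-10-mer Agilent arrays double-stranded by primer extension, the bound protein was detected with fluorescent anti-GST. E-scores, modified Wilcoxon-Mann-Whitney statistics, were given by the Universal PBM Analysis Suite to ungapped eight-base words pooled with their reverse complements after masliner normalisation.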

| Sequence | PBM E-score |
| --- | --- |
| CACTAGAG | 0.104 |
| AGTCGCGG | 0.0863 |
| AACGAATC | 0.134 |
| TACATGCA | -0.0395 |
| ATTGGTAC | 0.00439 |
| ACCGATCA | -0.0161 |
| ACTTTGCA | 0.0794 |
| TACTCAAA | 0.101 |
| CCGTGTTC | 0.152 |
| CCAGCCTA | 0.049 |
| AACCCCGC | 0.181 |
| AATGCTCG | -0.058 |
| CAAAAACA | 0.153 |
| AATTGTTA | 0.25 |
| CAATAAAC | 0.11 |
| ACCCAACT | -0.0251 |
| GATTGAAC | -0.0187 |
| ACGATATC | 0.111 |
| CCCTTCCA | -0.0396 |
| GGTTCGAA | 0.0962 |
| CAGTGAGG | -0.195 |
| CCTCTCAA | -0.146 |
| CCCCGCAA | 0.146 |
| CCACCTTC | -0.022 |
| TCAGGGGA | -0.0742 |

| Sequence | PBM E-score |
| --- | --- |
| AAATCTCG | -0.0566 |
| AGAGTTTC | 0.0351 |
| GAACCCTA | -0.14 |
| CAGGAGTA | -0.1 |
| CGGATTTC | 0.0415 |
| TCTGTCCA | 0.0843 |
| AGTCCCAT | -0.0198 |
| AATAGAAA | 0.193 |
| CACAAAGC | 0.0779 |
| ACGGACGT | -0.139 |
| CAATTGCA | 0.0169 |
| GATGAGCA | -0.0712 |
| GTCCGCAC | -0.0666 |
| CAGTGGAG | -0.0837 |
| CGGCTTCA | 0.0461 |
| AGGCGTAG | -0.029 |
| CGCTCGGC | -0.0251 |
| CCCGACCA | 0.0418 |
| ATGTGCGC | -0.0921 |
| CACTTGCG | -0.0542 |
| ACAAGCAG | -0.155 |
| CAAGGTCC | -0.0809 |
| AGCTTTCG | -0.232 |
| GCACAAGA | 0.0501 |
| TCCCGAGA | -0.22 |

| Sequence | PBM E-score |
| --- | --- |
| GTCACCAC | -0.121 |
| ACCAACGA | 0.00614 |
| ATTCTCGG | 0.114 |
| CTTTGGAC | 0.0737 |
| CAAGCCTA | -0.151 |
| CACTAGCG | -0.143 |
| CCAGGGTA | -0.0942 |
| GATTACTA | 0.0664 |
| AAACCCCG | 0.28 |
| ACGAGCAT | 0.0482 |
| CCGTACTA | 0.00296 |
| GCGGGCTA | -0.193 |
| AGGTATCA | 0.0378 |
| ATCTATCC | 0.112 |
| CATATCAC | -0.0631 |
| ATTGTAGC | 0.0213 |
| ACGCTTAC | -0.179 |
| ACGAGTCC | -0.0312 |
| GGCCATAC | -0.0307 |
| GGACCAAA | -0.0181 |
| CCCACTCA | 0.0863 |
| CCTAGTTA | 0.015 |
| CATCGTAG | -0.251 |
| TACATTGA | 0.103 |
| TATGAGGA | 0.0228 |

| Sequence | PBM E-score |
| --- | --- |
| AGTTCGGC | -0.143 |
| ACTAAGAA | 0.195 |
| AGGAACAA | -0.055 |
| ACGACACG | -0.0797 |
| GTAACCCA | 0.216 |
| AGACTTAG | -0.188 |
| ACGTTACG | 0.00414 |
| TATCCCAA | -0.0184 |
| CTCCAGCA | 0.0297 |
| ATGACCAA | -0.0343 |
| CTCTGAGC | -0.135 |
| AAAGGACC | -0.0559 |
| AACACTCG | 0.0544 |
| GGTCCACA | -0.145 |
| CTGGCCCC | -0.129 |
| CTACTGGC | 0.0701 |
| AATAGCGC | 0.0361 |
| ACAAGGTA | 0.0156 |
| AGTTAAAA | 0.286 |
| GCCCCTAC | 0.0166 |
| GGATAGCC | -0.0943 |
| GTAGTCAA | 0.0297 |
| AAGTGTTC | -0.00788 |
| CGGGAACC | -0.236 |
| AAGTATGA | 0.17 |

| Sequence | PBM E-score |
| --- | --- |
| TCGTAAGA | 0.0859 |
| GTGTAACA | 0.319 |
| ATTGCTAC | -0.107 |
| AAGAGAAT | 0.0795 |
| CCGAACAC | 0.0669 |
| CATTAAGC | -0.00233 |
| CTGTCATC | -0.108 |
| TCGACGCA | -0.0298 |
| ACCTTTAA | 0.026 |
| GTATATAC | -0.207 |
| AAACTCCG | 0.172 |
| ATGTCGAC | -0.044 |
| GCCTCGCC | -0.0817 |
| AAATGAGG | -0.0161 |
| AGGGTGTA | -0.103 |
| AGGCTACT | 0.123 |
| GTCGACCA | -0.126 |
| GATTCACC | 0.0165 |
| AGCGCACC | -0.0667 |
| ACGGTCGC | -0.191 |
| GTCATGAA | 0.0771 |
| AATGTGAT | 0.121 |
| CTCGTCCA | 0.0717 |
| AAGATCGA | -0.0121 |
| GGCCCTAC | -0.194 |

| Sequence | PBM E-score |
| --- | --- |
| GCGCGCGC | 0.353 |
| GACCACAC | -0.00854 |
| GACCCCTC | -0.119 |
| AGGCAACG | -0.218 |
| GATTGGTA | 0.0851 |
| CCTGAAAG | -0.179 |
| AGCTTTGA | -0.0146 |
| CGGAAGTC | 0.026 |
| ACCCGGCC | -0.335 |
| AAAGAGTA | 0.0122 |
| CTTTGTGA | -0.0351 |
| CCTTCTCA | 0.014 |
| ATACTGAT | 0.117 |
| GCTGAACA | -0.064 |
| CCGTAGTA | -0.0563 |
| GGCTTCAA | -0.0882 |
| ATAAAGTC | 0.167 |
| AGGTTATA | 0.0168 |
| CCTCGAAG | -0.0859 |
| CCTGACCC | -0.0436 |
| CAGCGCTA | -0.0397 |
| TACGGTAA | 0.154 |
| CTAACCAA | 0.186 |
| AGAAGGCT | -0.0898 |
| GGGAGTGA | 0.11 |

| Sequence | PBM E-score |
| --- | --- |
| AACCCGAT | 0.137 |
| CAGGGTAC | -0.223 |
| CAGCCGGC | 0.0566 |
| AGTGAGTG | 0.0865 |
| CGATTCCC | 0.0347 |
| AATTCTTG | 0.121 |
| AGTCGCAC | -0.064 |
| CTCGCGGC | -0.046 |
| AGCCGCCC | 0.093 |
| CTATACTC | -0.0377 |
| ACTCTAAC | 0.134 |
| GATGAATC | 0.0548 |
| CGTGTAGC | -0.148 |
| CCGAACAG | -0.0265 |
| ACAAAATA | 0.0836 |
| TCACAGAA | -0.0114 |
| GACAGCCA | -0.0873 |
| CTTGAACC | -0.0679 |
| AATATATT | 0.326 |
| AACGCCTG | 0.00128 |
| CACTTACG | -0.0469 |
| CCATAAAA | 0.256 |
| ACAATATG | 0.0817 |
| ACATCACC | -0.0996 |
| GCCAGTGA | -0.131 |

| Sequence | PBM E-score |
| --- | --- |
| CGCTGAAC | -0.0298 |
| CGCCCAAA | 0.023 |
| CAACCCGC | 0.116 |
| AACGACGC | -0.0528 |
| ACTCTCCA | -0.141 |
| ATCCCTTC | -0.076 |
| AAGTGCAG | -0.122 |
| CACCTAGG | -0.198 |
| ACCCGATC | 0.0578 |
| CGGGACGC | -0.055 |
| AAGAGCTC | -0.0902 |
| CTAGCATC | -0.0457 |
| ACAACTGT | -0.164 |
| AAGAGGGT | -0.282 |
| AGTCAATC | 0.111 |
| ATCCCAAT | 0.0963 |
| AGAGCGCA | -0.277 |
| AACTCGAC | 0.207 |
| AGTGCCTA | -0.311 |
| ACTGCGAG | 0.0571 |
| AATTTGGG | 0.161 |
| CTTTCGGA | 0.0344 |
| AGGAACGC | -0.0196 |
| GAGCATTA | -0.0174 |
| GTGGCAAA | 0.0171 |

| Sequence | PBM E-score |
| --- | --- |
| ATGGGGGG | -0.19 |
| ACGTGCAC | -0.2 |
| GCCTGAGC | -0.0841 |
| ACTACGGG | -0.0373 |
| ACTACACC | -0.189 |
| AGGTCTCC | -0.0404 |
| CAATAGAA | -0.0727 |
| CTCTCTAA | -0.104 |
| ATCTCCTA | -0.147 |
| CTGAGCCC | -0.104 |
| GACACGTC | -0.234 |
| CTTCAAGA | -0.0442 |
| GATATTAA | 0.246 |
| AGCGAGCG | 0.0574 |
| GATCTTAC | -0.064 |
| CTCTCTTC | -0.302 |
| AAGCTCAA | -0.168 |
| GCTGAAGC | -0.0602 |
| AGCCCTCC | -0.0764 |
